Experimental data published in PubChem BioAssay AID1345083 (National Center for Advancing Translational Sciences (NCATS), 2018).
Screen size: about 94,000 compounds; about 6,200 (6.6%) were called active. Inconclusive results, whose numbers are uncertain, are shown with a selection of clear calls. The call rests on the fitted dose curve; in most records, active means well fitted inhibition curve with a large enough effect; inconclusive means small, poorly fitted or top-dose-only effect; inactive means flat fitted curve, though single readings scatter. Where the call is inconclusive, the potency comes from a doubtful curve fit.

Test: Cytotoxic Profiling in HEK 293 Cell Line of Diverse Libraries Using Quantitative High-Throughput Screening; further: nearly all actives have a fitted effect of over 60% in size
Details: HEK 293 viability, ATP luminescence (CellTiter-Glo), 48-72 h; activity change, negative = cytotoxicity: at 115 µM (top of the series) unless noted; series mostly up to 115 µM
In short: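 Pintool-delivered compounds were incubated with HEK 293 cells (250 cells/well) at 37 degree Celsius for 48 or 72 hr. ATP-dependent luminescence (CellTiter-Glo) then reported remaining viable cells.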
On the % scale 0 is the no-effect control and ±100 the full control effect; potency means the concentration at half of the fitted maximal effect; tags describe the fitted curve by direction and shape.

Structure (SMILES) | Potency | outcome | activity change, negative = cytotoxicity
O=C(C[C@@H]1CCNC[C@@H]1Cc1cc(CSc2ccccc2)on1)N1CCN(c2ccccc2)CC1 | inconclusive: 39.8 µM [inhibitor, full curve, poor fit] |  | 
C=Cc1cccc(CN2CCC(CNS(=O)(=O)C3CC3)C2)c1 (stereo unspecified) |  | inactive | 
CN(C)c1ccc(C(=O)N2CCC(Cc3noc(-c4ccccc4)n3)C2)cc1 (stereo unspecified) | inconclusive: 79.4 µM [inhibitor, partial curve, poor fit] |  | 
O=C(c1ccc(Cl)nc1)N1CCn2c(nn(-c3ccc(F)cc3)c2=O)C1 | inconclusive: 100 µM [inhibitor, single point] |  | 
CC(=O)Nc1ccc(CN2CC(Oc3ccc(F)c(C)c3)C2)cc1 | inconclusive: 39.8 µM [inhibitor, partial curve, poor fit] |  | 
CCOc1cc(=O)n2c(c1C(=O)Nc1cc(Cl)c(OC)cc1OC)CCCC2 | inconclusive: 44.7 µM [inhibitor, partial curve] |  | 
FC(F)(F)c1cccc(CN2CCOC[C@H](Oc3ccccc3)C2)c1 | inconclusive: 100 µM [inhibitor, partial curve] |  | 
COc1cc(C)ccc1OCc1cc(C(=O)NCc2n[nH]c3c2CCC3)no1 | inconclusive: 89.1 µM [inhibitor, single point] |  | 
O=C(c1ccc(F)cc1)N1CCC2(CCc3nn(Cc4ccccc4)c(=O)n3CC2)CC1 | inconclusive: 44.7 µM [inhibitor, partial curve, poor fit] |  | 
Cc1noc(C)c1[S+](=O)([O-])N1CCC2(CC1)CC(=O)N(c1ccccc1)c1ccccc1O2 |  |  | inactive: -19.7%
CCCc1cc(C(=O)N(C)CCOc2ccccc2CC)n(C)n1 | inconclusive: 20 µM [inhibitor, full curve, poor fit] |  | 
CCOC(=O)C1CCCN(C(=O)c2ccc3nc(-c4cccc(C)n4)oc3c2)C1 (stereo unspecified) |  |  | inactive: -14.7%
CCOc1ccc(-c2cc3c(=O)n(CCNC(=O)Cc4ccccc4C)ccn3n2)cc1 | inconclusive: 35.5 µM [inhibitor, full curve] |  | 
O=C(c1ccc(F)cc1Cl)N1CCC(n2cc(-c3nc(C4CC4)no3)nn2)C1 (stereo unspecified) | inconclusive: 50.1 µM [inhibitor, partial curve, poor fit] |  | 
CN1C(=O)c2cccn2CC1CNC(=O)NCCc1ccccc1 (stereo unspecified) | inconclusive: 89.1 µM [inhibitor, single point] |  | 
CC(C)c1ccc(CC(=O)N2CCCc3ncc(C(=O)N4CCCC[C@@H]4c4ccccc4)cc32)cc1 | inconclusive: 50.1 µM [inhibitor, partial curve, poor fit] |  | 
COc1cccc(NC(=O)N[C@H]2[C@H](O)[C@@H](N3CCN(c4ccccc4)CC3)[C@@H]3OC[C@H]2O3)c1 |  |  | inactive: -18.5%
COCc1nncn1C1CCN(C(=O)c2ccc(F)cc2F)CC1 |  |  | inactive: 6.21%
O=C(Cc1cccc(Cl)c1)N1C[C@@H](CO)[C@H](c2ccncc2)C1 |  |  | inactive: -27.6%
COc1ccccc1-c1cn2c(n1)CO[C@@H](CNC(=O)c1ccc(Cl)cc1)C2 | active: 100 µM |  | 
COc1ccc(-c2ccccc2C(=O)N2CCC(NC(=O)c3ccccc3)CC2)nn1 | inconclusive: 89.1 µM [inhibitor, partial curve, poor fit] |  | 

Structure (SMILES) | Potency | outcome | activity change, negative = cytotoxicity
O[C@@H]1C[C@@H](c2nc(-c3cnccn3)no2)N(Cc2cccs2)C1 |  |  | inactive: -13.8% [at 172 µM]
Cc1ccc(C(=O)NC2CCN(c3cc(C(F)(F)F)ncn3)CC2)cc1 | inconclusive: 31.6 µM [inhibitor, full curve, poor fit] |  | 
Cn1ccnc1CN1CCN(Cc2ccc3cccc(Cl)c3n2)CC1 | inconclusive: 25.1 µM [inhibitor, full curve] |  | 
O=C(COc1ccc(F)cc1)N1CCC(CCOc2ccccc2F)C1 (stereo unspecified) | inconclusive: 56.2 µM [inhibitor, partial curve, poor fit] |  | 
COc1ccc(CC(=O)N2CCC3(CC2)CC(O)CCO3)cc1 (stereo unspecified) |  |  | inactive: -19.7%
O=C(C1CC(=O)N(c2ccc(F)c(Cl)c2)C1)N1CCc2c(nc[nH]c2=O)C1 (stereo unspecified) |  |  | inactive: -6.75%
c1ccc(-c2ccnc(NCCOc3cccc4cccnc34)n2)nc1 | inconclusive: 56.2 µM [inhibitor, partial curve, poor fit] |  | 
CCS(=O)(=O)c1ncc(CN(C)Cc2ccc3nonc3c2)n1CCc1ccccc1 | active: 22.4 µM |  | 
O=C(NCC1CCN(c2cc(-c3ccc(F)cc3)[nH]n2)CC1)c1n[nH]c2c1CCCC2 | active: 39.8 µM |  | 
COc1cccc(Nc2cccc(CN3CCCC(C)(NC(C)=O)C3)c2)c1 (stereo unspecified) | inconclusive: 100 µM [inhibitor, partial curve] |  | 
COc1ccc(-c2ccc3c(n2)CN(Cc2ccc(F)cc2)C(=O)CO3)cc1 | inconclusive: 100 µM [inhibitor, partial curve, poor fit] |  | 
Cc1ccc(NC(=O)C2CCN(C(=O)c3ncn4c3COC(c3ccc(F)cc3)C4)CC2)c(Cl)c1 (stereo unspecified) |  |  | inactive: 0.339%
CCOc1cccc(CN2C[C@@H]3C(=O)N(Cc4ccc5c(c4)OCO5)C(=O)[C@@H]3C2)c1 | inconclusive: 89.1 µM [inhibitor, single point] |  | 
CCOc1cc(-c2nc3ccc(-c4ccc(OC)c(OC)c4OC)cc3o2)ccc1OC |  |  | inactive: -27.5%
Cc1ccc(NC(=O)CC2CCCN(c3cnn(CC4CC4)c(=O)c3)C2)c(C)c1 (stereo unspecified) |  |  | inactive: 5.42%
Nc1ncccc1CN1CCCC12CCN(c1ccc(C(F)(F)F)cn1)CC2 | inconclusive: 39.8 µM [inhibitor, partial curve, poor fit] |  | 
Cc1cc2c(c(=O)n(-c3ccccc3)c(=O)n2CC(=O)Nc2ccc3c(c2)OCO3)n1C | inconclusive: 56.2 µM [inhibitor, partial curve, poor fit] |  | 
CO[C@H]1[C@H](NC(=O)c2cn(C)c3ccccc23)c2ccccc2C12CCNCC2 | inconclusive: 89.1 µM [inhibitor, single point] |  | 
COc1ccc(CNC(=O)N2CCC3(CC2)CC(N(C(C)=O)C2CC2)CCO3)cc1 (stereo unspecified) | inconclusive: 89.1 µM [inhibitor, single point] |  | 
Cc1noc2c(-c3cccnc3N(C)C)cc(-c3ccccc3)nc12 | inconclusive: 112 µM [inhibitor, partial curve, poor fit] |  | 
